In all, about 310,000 compounds went through this assay and about 14,000 (4.5%) showed an effect of 50% or more. Effects have a minus sign here. The list shows a part of the results.
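Note: peak tail current of the secondary pulse compared with the same well before compound.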

Sequence of human ether-à-go-go-related gene (hERG) potassium channel (Q12809 whole entry, looked up): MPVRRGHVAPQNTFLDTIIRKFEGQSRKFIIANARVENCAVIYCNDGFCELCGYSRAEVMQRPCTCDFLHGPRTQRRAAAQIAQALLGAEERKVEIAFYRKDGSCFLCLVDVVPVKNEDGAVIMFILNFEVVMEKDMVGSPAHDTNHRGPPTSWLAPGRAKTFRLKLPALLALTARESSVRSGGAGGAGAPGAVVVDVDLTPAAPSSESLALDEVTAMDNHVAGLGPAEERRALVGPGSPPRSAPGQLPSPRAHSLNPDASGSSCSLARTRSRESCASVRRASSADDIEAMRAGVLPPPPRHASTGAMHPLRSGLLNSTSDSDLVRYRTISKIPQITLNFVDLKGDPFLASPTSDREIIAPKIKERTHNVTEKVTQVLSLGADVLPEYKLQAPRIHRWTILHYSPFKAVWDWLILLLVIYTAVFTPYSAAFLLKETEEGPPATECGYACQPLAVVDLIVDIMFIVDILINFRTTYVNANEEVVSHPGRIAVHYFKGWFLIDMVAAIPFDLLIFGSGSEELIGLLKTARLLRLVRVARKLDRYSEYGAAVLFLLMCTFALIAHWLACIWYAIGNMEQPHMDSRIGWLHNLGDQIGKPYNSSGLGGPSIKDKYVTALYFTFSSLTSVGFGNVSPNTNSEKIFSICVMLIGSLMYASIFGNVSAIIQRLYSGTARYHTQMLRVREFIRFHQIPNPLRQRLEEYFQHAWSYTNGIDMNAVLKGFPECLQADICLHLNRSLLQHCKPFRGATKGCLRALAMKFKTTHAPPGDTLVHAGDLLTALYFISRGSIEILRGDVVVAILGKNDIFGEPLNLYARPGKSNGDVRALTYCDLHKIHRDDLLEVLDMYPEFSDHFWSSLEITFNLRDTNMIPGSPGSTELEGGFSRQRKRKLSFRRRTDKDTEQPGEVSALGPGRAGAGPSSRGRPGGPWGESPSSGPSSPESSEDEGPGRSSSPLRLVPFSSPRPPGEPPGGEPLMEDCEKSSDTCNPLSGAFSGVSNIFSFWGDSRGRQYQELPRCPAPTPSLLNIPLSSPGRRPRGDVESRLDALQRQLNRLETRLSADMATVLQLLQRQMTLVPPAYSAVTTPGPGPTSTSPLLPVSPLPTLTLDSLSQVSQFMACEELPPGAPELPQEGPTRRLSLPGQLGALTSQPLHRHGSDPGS

The test has as its target human ether-à-go-go-related gene (hERG) potassium channel (human, UniProt Q12809). In words: primary screen, population patch clamp on CHO cells stably expressing hERG.
For the molecule `CCN(CC)S(=O)(=O)c1ccc(C)c(NC(=O)CSc2nc3ccccc3[nH]2)c1`, the “hERG current change (%, negative = inhibition) at 10uM” value was -14.9%.

`CCN(CC)c1ccc(C2C(C(=O)OCCOC(C)C)=C(C)NC3=C2C(=O)CCC3)cc1` (stereo not shown): the “hERG current change (%, negative = inhibition) at 10uM” value was -12.3%.

Regarding `O=C1N/C(=C/c2cccs2)C(=O)N1Cc1ccccc1F`, the “hERG current change (%, negative = inhibition) at 10uM” value is reported as 14.5%.

As for `CCOc1c2ccc(C(=O)NCc3ccc(OC(F)(F)F)cc3)cc2nn1CC`, the “hERG current change (%, negative = inhibition) at 10uM” value is on record as -17.4%.

With `COc1ccc(CCNC(=O)c2ccc(Cl)c(S(=O)(=O)N3CCCC3)c2)cc1`, the “hERG current change (%, negative = inhibition) at 10uM” value is -56.6%.

`O=C(NC(=S)Nc1ccc(Cl)cn1)c1cccs1`: the “hERG current change (%, negative = inhibition) at 10uM” value is on record as 7.54%.

For the molecule `CSC(=NC#N)N1CCN(c2c(C)cccc2C)CC1`, the “hERG current change (%, negative = inhibition) at 10uM” value is -14.4%.

Turning to `C[C@H]1CN=C(N(C)C)N1CC1CCC(C(C)(C)C)CC1` (stereo partly shown), the “hERG current change (%, negative = inhibition) at 10uM” value is -42.7%.

`O=C(CN(C(=O)CNC(=O)c1ccco1)c1ccc(F)cc1)NC1CCCCC1`: the “hERG current change (%, negative = inhibition) at 10uM” value is reported as -3.48%.

Regarding `COc1cccc(N2CCN(C(=O)c3cc(-c4ccc(F)cc4)[nH]c3C)CC2)c1`, the “hERG current change (%, negative = inhibition) at 10uM” value is recorded as -68.4%.

As to `CC(=O)Nc1cnc2ccccc2n1`, the “hERG current change (%, negative = inhibition) at 10uM” value was determined as 7.12%.

With `Cc1ccc(-c2cc(C(F)F)n3ncc(C(=O)Nc4c(C)nn(Cc5c(Cl)cccc5Cl)c4C)c3n2)cc1`, the “hERG current change (%, negative = inhibition) at 10uM” value stood at 23.9%.

For `O=C(CSc1ccccn1)N1CCN(S(=O)(=O)c2ccc(Cl)cc2)CC1`, the “hERG current change (%, negative = inhibition) at 10uM” value was -33.9%.

For `O=C(Nc1cccc(Cl)c1N1CCOCC1)c1ccc2c(c1)OCCO2`, the “hERG current change (%, negative = inhibition) at 10uM” value is recorded as -18.1%.

For the molecule `C#CCOCCOCCOCCNc1nc(N2CCN(C(=O)CCCCCCCCCCNC(=O)[C@H](CCCCN)n3cc(CCCC(=O)O)nn3)CC2)nc(N2CCN(C(=O)CCCCCCCCCCNC(=O)[C@H](CCCCN)n3cc(CCCC(=O)O)nn3)CC2)n1`, the “hERG current change (%, negative = inhibition) at 10uM” value is 0.628%.

Turning to `O=C(COC(=O)C1CC2C=CC1C2)Nc1cccc(S(=O)(=O)N2CCCCCC2)c1` (stereo not shown), the “hERG current change (%, negative = inhibition) at 10uM” value is -23.2%.

On to `C=CCCc1ccc(C#N)c(SCc2c(C(=O)OCC)c3cc(OC(C)=O)c(Br)cc3n2C)n1`, for which the “hERG current change (%, negative = inhibition) at 10uM” value was -1.18%.

Regarding `Cc1nnc(NC(=O)c2ccc(S(=O)(=O)N3CCCCC3C)cc2)o1` (stereo not shown), the “hERG current change (%, negative = inhibition) at 10uM” value is on record as 6.64%.

Turning to `COc1cc(Cl)ccc1OCc1cc(C(=O)N(C)C2CC(C)(C)NC(C)(C)C2)no1`, the “hERG current change (%, negative = inhibition) at 10uM” value is listed as -13.3%.

Turning to `CCCOc1ccc(-c2c(C(=O)N/N=C/c3ccc(OCC)cc3)nnn2-c2nonc2N)cc1`, the “hERG current change (%, negative = inhibition) at 10uM” value is on record as 8.92%.

On to `CC(=O)C1=C(c2cccc([N+](=O)[O-])c2)N(C(C)=O)n2c(C)nnc2S1`, for which the “hERG current change (%, negative = inhibition) at 10uM” value was -19.5%.

Regarding `Cc1ccccc1C(=O)NC(C(N)=O)P(=O)(OC(C)C)OC(C)C` (stereo not shown), the “hERG current change (%, negative = inhibition) at 10uM” value was -55.2%.

Take `CCN(CC(=O)Nc1ccc(NC(C)=O)cc1)C(=O)CCCc1nc2ccccc2s1`: the “hERG current change (%, negative = inhibition) at 10uM” value is given as 2.84%.

As for `CCOc1ccc(NC(=S)N(Cc2ccc(Cl)cc2)Cc2ccco2)cc1`, the “hERG current change (%, negative = inhibition) at 10uM” value stood at 3.68%.

In the case of `O=C(Nc1cc(Cl)ccc1O)c1snnc1-c1ccccc1`, the “hERG current change (%, negative = inhibition) at 10uM” value is recorded as 19%.

For `O=C(NCCCN1CCC(Cc2ccccc2)CC1)C1CC(=O)N(C2CCCCCC2)C1` (stereo not shown), the “hERG current change (%, negative = inhibition) at 10uM” value is recorded as -66.8%.

Regarding `O=C(Cn1nnc(-c2ccc(N3CCOCC3)cc2)n1)N1CCOCC1`, the “hERG current change (%, negative = inhibition) at 10uM” value is 5.28%.

Consider `C[C@@H](NC(=O)c1[nH]cnc1C(=O)Nc1ccc(Cl)cc1)c1ccccc1`, for which the “hERG current change (%, negative = inhibition) at 10uM” value was 15.8%.

As for `CN(C)C(CNc1ccc(C(F)(F)F)cn1)c1ccccc1` (stereo not shown), the “hERG current change (%, negative = inhibition) at 10uM” value is recorded as -28.5%.

In the case of `O=C(COC(=O)CC12CC3CC(CC(C3)C1)C2)Nc1cccnc1Cl`, the “hERG current change (%, negative = inhibition) at 10uM” value is on record as -16.8%.

In the case of `COc1ccc(F)cc1C(=O)C1CCCN(Cc2c(C)n(C)n(-c3ccccc3)c2=O)C1` (stereo not shown), the “hERG current change (%, negative = inhibition) at 10uM” value was -11.5%.

In the case of `O=P1(Oc2ccccc2)C[C@@H](O)[C@@H](O)[C@H](COCc2ccccc2)O1` (stereo partly shown), the “hERG current change (%, negative = inhibition) at 10uM” value is recorded as 1.68%.

Take `CCN(CC)S(=O)(=O)c1ccc(NS(=O)(=O)c2ccc(C)c(C)c2)cc1`: the “hERG current change (%, negative = inhibition) at 10uM” value is -21.6%.

Consider `COc1ccc(Cc2nnc(NC(=O)Nc3ccc(C)cc3)s2)cc1OC`, for which the “hERG current change (%, negative = inhibition) at 10uM” value stood at 10.2%.

As to `CC(NC(=O)/C=C/c1cnc2ccccc2n1)C12CC3CC(CC(C3)C1)C2` (stereo not shown), the “hERG current change (%, negative = inhibition) at 10uM” value is -10.1%.

Turning to `CN(C)CCCn1c2c(c(SCC(=O)Nc3ccc4c(c3)OCCO4)nc1=O)CCC2`, the “hERG current change (%, negative = inhibition) at 10uM” value is reported as -12.2%.

Take `CC(NCc1ccc(S(N)(=O)=O)cc1)C(=O)Nc1ccc([N+](=O)[O-])cc1Cl` (stereo not shown): the “hERG current change (%, negative = inhibition) at 10uM” value is -50.5%.

For `O=C(CCNC(=O)c1ccc(Cl)cc1)Nc1ccccc1N1CCCCC1`, the “hERG current change (%, negative = inhibition) at 10uM” value is listed as -24.5%.

As for `Cc1cccc(-n2c(C)cc(C)c(C#N)c2=O)c1`, the “hERG current change (%, negative = inhibition) at 10uM” value came out at 7.18%.

As for `Cc1c(NC(=O)c2ccc(F)c(S(=O)(=O)N3CCOCC3)c2)c(=O)n(-c2ccccc2)n1C`, the “hERG current change (%, negative = inhibition) at 10uM” value is reported as -3%.

With `C/C(=N\NC(=O)C1COc2ccccc2O1)c1ccc(Cl)s1` (stereo not shown), the “hERG current change (%, negative = inhibition) at 10uM” value is recorded as 25.7%.

In the case of `O=C(c1n[nH]c2ccccc12)N1CCN(S(=O)(=O)c2ccccc2)CC1`, the “hERG current change (%, negative = inhibition) at 10uM” value was -6.29%.

Turning to `CCOc1ccc(N(CC(=O)NCc2ccc(C)cc2)S(=O)(=O)c2c(C)[nH]c(=O)[nH]c2=O)cc1`, the “hERG current change (%, negative = inhibition) at 10uM” value stood at 6.73%.
